Measured values as given in paper PMC4336329 (PLoS ONE, 2015).
Out of some 310,000 compounds screened, about 2,200 (0.71%) showed an effect of 50% or more. Effects have a minus sign here. The list shows a part of the results.

Biological target: human ether-à-go-go-related gene (hERG) potassium channel (human, UniProt Q12809)
Assay: primary screen, population patch clamp on CHO cells stably expressing hERG

Chain of human ether-à-go-go-related gene (hERG) potassium channel (Q12809 whole entry, looked up): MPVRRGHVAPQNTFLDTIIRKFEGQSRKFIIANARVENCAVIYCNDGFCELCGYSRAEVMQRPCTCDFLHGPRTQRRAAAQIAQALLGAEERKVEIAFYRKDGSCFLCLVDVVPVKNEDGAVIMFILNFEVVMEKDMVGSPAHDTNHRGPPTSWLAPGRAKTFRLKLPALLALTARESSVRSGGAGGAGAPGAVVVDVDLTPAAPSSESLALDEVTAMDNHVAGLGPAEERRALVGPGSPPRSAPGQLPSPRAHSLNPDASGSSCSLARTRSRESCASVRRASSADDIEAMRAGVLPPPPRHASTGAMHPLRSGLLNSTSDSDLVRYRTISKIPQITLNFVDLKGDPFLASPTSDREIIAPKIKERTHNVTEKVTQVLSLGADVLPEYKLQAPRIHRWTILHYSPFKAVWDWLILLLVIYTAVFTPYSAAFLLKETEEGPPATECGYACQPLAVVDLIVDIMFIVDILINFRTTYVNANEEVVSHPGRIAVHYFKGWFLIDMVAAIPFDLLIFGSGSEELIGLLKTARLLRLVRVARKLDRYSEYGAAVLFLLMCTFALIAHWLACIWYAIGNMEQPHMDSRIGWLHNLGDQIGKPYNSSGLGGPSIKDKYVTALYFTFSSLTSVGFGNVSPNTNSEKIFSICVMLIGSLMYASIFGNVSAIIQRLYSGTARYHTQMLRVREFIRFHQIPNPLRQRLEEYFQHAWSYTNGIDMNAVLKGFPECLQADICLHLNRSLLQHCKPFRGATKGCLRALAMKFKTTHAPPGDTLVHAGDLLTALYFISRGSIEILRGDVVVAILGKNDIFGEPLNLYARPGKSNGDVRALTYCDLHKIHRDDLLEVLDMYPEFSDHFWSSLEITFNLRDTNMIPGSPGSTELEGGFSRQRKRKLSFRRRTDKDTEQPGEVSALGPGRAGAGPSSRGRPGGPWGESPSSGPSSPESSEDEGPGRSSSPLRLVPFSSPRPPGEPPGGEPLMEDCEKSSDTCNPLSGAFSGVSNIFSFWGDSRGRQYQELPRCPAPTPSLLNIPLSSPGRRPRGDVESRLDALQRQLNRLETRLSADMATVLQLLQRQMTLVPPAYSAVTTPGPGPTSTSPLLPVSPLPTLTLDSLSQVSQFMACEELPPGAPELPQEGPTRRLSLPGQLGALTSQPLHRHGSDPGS

Structure (SMILES)	hERG current change (%, negative = inhibition) at 1uM
COc1ccc(S(=O)(=O)NCc2ccco2)c2ccccc12	6.18%
CCN(C(=O)CSc1nnc(C)n1Cc1ccccc1)C1CCS(=O)(=O)C1 (stereo not shown)	16.9%
O=C(Nc1cccc([N+](=O)[O-])c1)c1ccccc1	8.72%
O=C(CNS(=O)(=O)c1ccccc1)N/N=C/c1ccncc1	8.02%
c1ccc(CCCCNCC2COc3ccccc3O2)cc1 (stereo not shown)	-2.56%
CCOC(=O)c1cc(CC)sc1NC(=O)COC(=O)c1cnccn1	11.1%
C=CCn1c(SCC(=O)Nc2ccccc2F)nc2ccccc2c1=O	6.7%
COc1cccc(CNC(=O)c2cc(S(=O)(=O)N3CCCC3)cn2C)c1	8.8%
COc1ccccc1N1CCN(C(=O)c2ccc3c(c2)CCN3S(C)(=O)=O)CC1	10.9%
Cc1ccc(C(=O)n2c(N)nc3ccccc32)cc1	12.8%
Cc1ccc(NC(=O)CC(N)=S)cc1	10.5%
COc1ccc(C)cc1NC(=O)CNC(c1ccccc1)c1ccccc1	2.07%
COc1ccc(OCc2cc(C(=O)N3CCCCCCC3)no2)c(Cl)c1	-7.85%
Cc1ccc(NC(=S)N2CCCC(c3nc4ccccc4[nH]3)C2)cc1 (stereo not shown)	-2.16%
O=c1ccc2ccc(OCCOc3cccc(Cl)c3)cc2o1	9.4%
CCC(=O)Nc1nnc(SCC(=O)NCCc2ccc(OC)c(OC)c2)s1	23.5%
CCCc1[nH]n(-c2nc3ccccc3s2)c(=O)c1C=NCCN1CCOCC1	-4.58%
CCN(CC)C(NC(=O)Cc1ccccc1)C(Cl)(Cl)Cl (stereo not shown)	1.13%
Cc1cc(N2CCN(C3CCCC3)CC2)n2c(nc3ccccc32)c1C#N	-4.07%
COc1ccc(-c2[nH]ncc2CNCCc2ncccc2C)cc1F	-5.25%

Structure (SMILES)	hERG current change (%, negative = inhibition) at 1uM
COc1ccc(-n2c(Cc3cccn3C)nnc2SCC(=O)N2CCC(C)CC2)cc1	5.72%
CCC(=O)Nc1ccc2c(c1)nc(CCN1CCN(c3ccccc3)CC1)n2C	0.124%
Cc1ncc([N+](=O)[O-])n1Cc1ccc(F)cc1	5.41%
CCOC(=O)CCSc1nc(C)c2cc(C)c(C)cc2n1	3.18%
COc1ccc(-n2c(SCC(=O)Nc3cc(C)on3)nc3c(c2=O)SCC3)cc1OC	12.1%
O=C(Nc1ccc2c(c1)CCC2)c1ccccc1F	6.84%
COC(=O)c1sc2ncccc2c1OCc1ccc(Cl)cc1	5.16%
Cc1[nH]c2ccc(F)cc2c1CCN(Cc1ccncc1)C(=S)Nc1ccc(F)cc1	-1.08%
N/C(=N\OC(=O)COc1ccc(Br)cc1Cl)c1ccncc1	6.43%
CCCCCN1C/C=C\C(c2ccc(OC)cc2)N(Cc2ccc(F)cc2)C(=O)C1 (stereo not shown)	13.8%
O=C(N=C1c2ccccc2CN1c1ccccc1)c1cccc([N+](=O)[O-])c1	5.48%
Cc1nn(-c2ccc(F)cc2)c2c1cc(C#N)c1nc3ccccc3n12	10.6%
O=C(c1ccc([N+](=O)[O-])c(CS(=O)(=O)c2ccc(Cl)cc2)c1)N1CCCCC1	-7.51%
CCOC(=O)N1CCN(C2CCCN(C(=O)c3cccc(N(C)C)c3)C2)CC1 (stereo not shown)	13.8%
O=S(=O)(NCC1CC1)c1cc(Cl)cc(Cl)c1	8.53%
O=C(NCc1cn(-c2ccccc2)nc1-c1ccc(F)cc1)c1cccc([N+](=O)[O-])c1	11.2%
O=C(CCc1ccccc1)Nc1nnc(-c2cccs2)o1	24.8%
Cc1ccc(NC(=O)c2nc3nccc(C)n3n2)c(C)c1	5.84%
CCCc1sc(N/N=C/c2ccccn2)nc1-c1ccc(F)cc1	8.58%
Cc1ccc(Cc2nnc3n(-c4ccccc4)nc(C(=O)c4ccccc4)n3c2=O)cc1	-2.26%

Structure (SMILES)	hERG current change (%, negative = inhibition) at 1uM
CCOC(=O)C(=CNc1ccc(S(N)(=O)=O)cc1)C(=O)OCC	7.96%
CC(C)n1c(SCC(=O)Nc2ccccc2)nc2c1c(=O)[nH]c(=O)n2C	9.97%
N#CC(Cc1ccc(OC(F)F)cc1)c1nc2ccccc2[nH]1 (stereo not shown)	-4.91%
CCc1cccc(NC(=O)NC(=O)Cn2nnc(C(=O)OC)c2C(=O)OC)c1	13.5%
CC(C)CCNC(=O)NC(=O)COc1ccccc1C#N	13%
O=C(N/N=C/c1ccc([N+](=O)[O-])cc1)c1cnccn1	13.1%
O=C(Nc1sc2c(c1CN1CCOCC1)CCC2)c1ccc(F)cc1	-6.12%
Cc1cnc(C(=O)Nc2cccc(S(=O)(=O)N(C)C)c2)cn1	12.6%
CCn1c(SCC(=O)Nc2ccc3c(c2)OCO3)nc2c(c1=O)SC(C)C2 (stereo not shown)	6.48%
CC(NC(=O)C1CCCC1)C1CC2CCC1C2 (stereo not shown)	7.57%
COc1ccc(-n2c(=S)[nH]c3cc(C(=O)NCc4ccccc4OC)ccc3c2=O)c(OC)c1	18.1%
Cc1ccc(S(=O)(=O)N/N=C\c2ccc3c(c2)OCO3)c(C)c1	9.55%
Cc1nnc(NC(=O)CSc2nccn2Cc2ccccc2)s1	2.11%
Cc1cc(C)n2cc(CSc3ncn[nH]3)nc2n1	1.42%
COc1ccc(Cl)cc1N(CC(=O)N1CCC(C)CC1)S(C)(=O)=O	1.98%
C=CCOCC(O)Cn1c(N2CCCC2)nc2c1c(=O)[nH]c(=O)n2C (stereo not shown)	13.8%
O=C1CC(c2ccccc2)CC(O)=C1C=NCc1ccccc1 (stereo not shown)	13.3%
Cc1c(C(=O)NC(=S)Nc2ccccc2N2CCCC2)cccc1[N+](=O)[O-]	5.43%
